# Paper PMC10726135
# The other results are listed elsewhere or left out. At the low end of the ranking the order means little. Measured with an extract: partners may take part in the binding.
# Biological target: T1, HNF4alpha8 (COS-7 nuclear extract) (UniProt P41235-5)
# T1 sequence: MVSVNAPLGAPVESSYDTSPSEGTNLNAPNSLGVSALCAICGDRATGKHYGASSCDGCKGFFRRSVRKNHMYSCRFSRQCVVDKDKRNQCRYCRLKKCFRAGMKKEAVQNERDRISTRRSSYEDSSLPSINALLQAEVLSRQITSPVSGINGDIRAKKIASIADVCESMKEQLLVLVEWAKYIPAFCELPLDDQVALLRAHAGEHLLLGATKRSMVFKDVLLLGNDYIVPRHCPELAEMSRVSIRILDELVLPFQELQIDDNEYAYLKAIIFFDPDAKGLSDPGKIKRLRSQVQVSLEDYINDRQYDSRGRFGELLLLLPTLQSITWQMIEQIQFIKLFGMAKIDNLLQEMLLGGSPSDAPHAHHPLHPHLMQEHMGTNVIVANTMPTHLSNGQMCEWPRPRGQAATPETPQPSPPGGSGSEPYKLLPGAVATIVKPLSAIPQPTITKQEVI
# Experiment: protein-binding microarray
# Settings: COS-7 nuclear extract on double-stranded Agilent 4x180k PBM; binding buffer, salt, pH and temperature not given; high values mean tight binding; double strand, one strand shown; sequences stand for … in …GCCTAGGGAGATTAGAGTATCGGTCGA
row,Sequence,binding signal (log2 normalized intensity)
1,TGAGCAGCTGGAGGGGGACTGGAAGGGAGA,-1.04
2,ACTCCTGCCCCTGTGCAATACTTTCCCTGA,1.06
3,AGCAGATAAGAACACAAAAAGCCTGAGCAT,-1.33
4,ATGAGCCCCCTAAAAAGAAAACTAGATAGT,1.51
5,CCCCACTGTTTTACTGGGGCCCATTGTATG,0.682
6,TGCTCCAGTAAAAGCTCTACCTGACCTCCC,3.24
7,CACATGGTGTCTTTTGTTGTTGTTAGCTGT,1.92
8,TTTGTTACTTACAGACTTTCAACATTATGA,0.613
9,AAGTGGACTTTAGAACCCAAATAGACTTAA,4.6
10,TCTCCTCTGAACCCTCTTCTCAACTAGGCC,1.35
11,GATGTCTGCTTCTTGGGTCAAAGTCTCTGG,3.97
12,ACCAGCGTAATTCTGGCTCTTTGAGTGGTT,0.461
13,GTAATGACATGCAGTATGGGGACTTTGGAC,7.1
14,AAGCTGGAAGGACAGCATTCCTGTCTGCGA,-1.36
15,AACTAGGGCAGGGACTTTGCCCTTTTTAAT,6.81
16,AAGCTGTGTCAGGCATTGTACTCACTGTTA,0.747
17,GAGATAAGTCACCTTATCAAGTCCGAACTC,1.35
18,GGAGCCAGGGCCTTTTCAAGGGAGTCCTCC,-1.18
19,CCGCGCGCAGGGCGGACAGCGCCGCCACCC,-1.37
20,GGTCAAAGGTCAGTTTCTTTAAGACAAGTG,5.86
21,AATACCATCATCTCAGGGAGTGCAAACTTC,0.837
22,TATCACCCTCCCTATCAGCTACTCATGCTT,0.974
23,TGCAGAGTGTCCCACTTCAGGCAGGAATGC,-1.31
24,GTCCCCCACCTGGAATGTGCTCCCGACTGC,3.65

row,Sequence,binding signal (log2 normalized intensity)
1,TCCTCACAGTGCAGCACAGCAGCTGACAGA,-1.25
2,TCAGTTTCTGAGAGTGGCAAGCAGGAGCTG,-1.39
3,GCCTAGCACAGTGCCTGGCATGTGATAGGC,-1.43
4,TAAAATAACGACCTTTGGGCTAAAAAGGAA,3.55
5,CCCTCTGGTGCTGATGTGTTCGCCCCTAGG,1.8
6,GATAGGGAGGGGTAAGGGTGGGGGTGGGGA,-1.35
7,CTGAATGGAATGAAGATACTGGATAACCTT,1.09
8,TCTTGACCAGGCAAGCTTGACCTTTGATCC,10
9,GGTCAGCAATCTCAAAGACTGGAGGTAGAT,-0.761
10,CACAGCTCTAGAGGGCTGCTTATCTAGGAT,-1.02
11,TTTTCTTTTTAATCCTGGATTCCTCCAGCC,-1.24
12,ACAGTGCAGCACAGCAGCTGACAGATGGTG,-1.34
13,AATGGGCCTAGGTATTGAGGGAGCAAAGGG,-1.01
14,GAAGATTCTTTGGTTGGGAATAACATTGTG,1.42
15,ACGTAAACAAGTAAGGAAGACAAGACAAGG,-1.23
16,CCATTACCACATTCTCACCACTAGGAAACT,-1.36
17,TAGCACTGACCAGCTCCAAAGTCCGCCACT,3.2
18,CCCACCTCCACTCTCATAAAAGAGGCCAAT,1.97
19,GCTAGAGCGCGCTGGAATCTTGATAATGCC,-1.43
20,GCTTCCAATCCTGGAGAAGGAGCACCAATG,-1.17
21,GTAAACTAGTGATGTGGAAATCTGGACTCA,3.49
22,TGTATCTATCTCTATGTCCACAGAAAGGCA,0.639
23,CCTCTGCCTAGGAAAACCAGAGACCTTTGT,3.68
24,CTGGAATTTCAAAGGGAGCATATGTATGTC,1.15

row,Sequence,binding signal (log2 normalized intensity)
1,GGAGAACAAACCTTATCTCTCAAGGTTCCC,-1.02
2,CAGATTAGAAGGCAGAGAAAGATAGGAGAT,-1.19
3,TTCTTTCGGTCACCCACACAAAAATGTGCC,-1.22
4,ACTCTGTTTGTAAAGTCTACAAGTGGATAT,1.12
5,CAAACAAAAAACCCTAGAGATGTACACAGT,-1.11
6,TATACCTGTACACTTACAAGTGTACAAAGG,2.96
7,TAGGCCTTTCCTGGGCCTTAAAGCATGACA,-1.15
8,CAAATTTGGGAGGGAAGAGGCAAGGAAAGA,-1.31
9,TCATGAGTAGGTTTACTAAAGGAAGGGAGG,-1.18
10,TGGAGATAACACACAGGCTCAACGGGTTAG,-1.27
11,CATTGGAGGTCACCCTGTGTCAGCGACTGG,-1.22
12,ATGTGTGCTTTCAGGTGTGAACCCAGGCAA,2.46
13,CACCAGAAAAATGTACATGTGCAAAAGCAC,-1.12
14,TTAAGAACTGGAGTAAAGGTCACTCTTGCT,3.94
15,GCTGTGTACTTTGAACTGAAGGATATTGGC,4.44
16,ATGGAATTTAATTAGCTTCTGTTCAGGAGT,-0.251
17,CACTGATAACATGAGGATACTGATAACATG,-0.35
18,GCTAATGAGATAATGCTGGTAAAGCACTTT,0.678
19,CAGTGATCTTATCGCCTAGTACTCCTGCCC,0.833
20,CTCAGAGTCTGTGGAGACACTGCCAGTGTC,-1.3
21,GCATGACCTCAACTCTCAGTTTGGCTCTTA,0.116
22,TCTAGATAAGTTTATTTACTTATGTTGTCC,1.85
23,GGGGAGGTGGGAAAAGAAATGTAGTGACAG,-0.392
24,AAAGGTCACTTCTGTTCATTGATAAAGGGT,3.11
